# Assay results published in a collection of fitness landscapes (doi:10.1126/science.1257360).
# The other results are listed elsewhere or left out.
# B1: PhoQ; a variant is named by its letters at X, in order, P23837 (parent)
# chain: MKKLLRLFFPLSLRVRFLLATAAVVLVLSLAYGMVALIGYSVSFDKTTFRLLRGESNLFYTLAKWENNKLHVELPENIDKQSPTMTLIYDENGQLLWAQRDVPWLMKMIQPDWLKSNGFHEIEADVNDTSLLLSGDHSIQQQLQEVREDDDDAEMTHSVAVNVYPATSRMPKLTIVVVDTIPVELKSSYMVWSWFIYVLSANLLLVIPLLWVAAWWSLRPIEALAKEVRELEEHNRELLNPATTRELTSLVRNLNRLLKSERERYDKYRTTLTDLTHSLKTPLXXLQXXLRSLRSEKMSVSDAEPVMLEQISRISQQIGYYLHRASMRGGTLLSRELHPVAPLLDNLTSALNKVYQRKGVNISLDISPEISFVGEQNDFVEVMGNVLDNACKYCLEFVEISARQTDEHLYIVVEDDGPGIPLSKREVIFDRGQRVDTLRPGQGVGLAVAREITEQYEGKIVAGESMLGGARMEVIFGRQHSAPKDE
# Variants of: B1
# Assay: enrichment ratio after two sorts for PhoP signalling (ratio (wild type AVST 3.29)); higher = more functional
# Settings: with PhoP (E. coli)
row,Variant,enrichment ratio
1,ERRP,≤ 0.25
2,KVIT,≤ 0.25
3,EQPS,≤ 0.25
4,SINE,≤ 0.25
5,TGWI,26.1
6,RQFG,≤ 0.25
7,TVPI,≤ 0.25
8,NMVL,≤ 0.25
9,MHTG,≤ 0.25
10,YEYC,≤ 0.25
11,TPHF,≤ 0.25
12,MFVP,≤ 0.25
13,KVCK,≤ 0.25
14,NQHW,≤ 0.25
15,MFPQ,≤ 0.25
16,IYFH,≤ 0.25
17,RVHF,≤ 0.25
18,MNAR,≤ 0.25
19,TPQP,≤ 0.25
20,TKSD,≤ 0.25
21,RVTI,≤ 0.25
22,WLGW,≤ 0.25
23,FWPN,≤ 0.25
24,IAMV,2.82

row,Variant,enrichment ratio
1,TWSL,≤ 0.25
2,ECWP,≤ 0.25
3,WAFR,≤ 0.25
4,SAVC,≤ 0.25
5,SYPP,≤ 0.25
6,AFVV,≤ 0.25
7,TWAH,≤ 0.25
8,LENN,≤ 0.25
9,HPCV,≤ 0.25
10,MDYG,≤ 0.25
11,QMWG,≤ 0.25
12,APSR,≤ 0.25
13,MYTF,≤ 0.25
14,DCFN,≤ 0.25
15,LHCI,≤ 0.25
16,GLFL,≤ 0.25
17,ELPE,≤ 0.25
18,MGKI,≤ 0.25
19,VCDM,≤ 0.25
20,LEQD,≤ 0.25
21,PTRV,≤ 0.25
22,IGAE,≤ 0.25
23,WEAR,≤ 0.25
24,KYSP,≤ 0.25

row,Variant,enrichment ratio
1,VTII,≤ 0.25
2,IHCN,≤ 0.25
3,LPFH,≤ 0.25
4,ILGY,≤ 0.25
5,DIEV,≤ 0.25
6,YRTS,≤ 0.25
7,CFTF,≤ 0.25
8,WVPC,≤ 0.25
9,VKWG,≤ 0.25
10,AQRI,≤ 0.25
11,PQKC,≤ 0.25
12,DNSD,≤ 0.25
13,THDN,≤ 0.25
14,TENI,10.2
15,FHRH,≤ 0.25
16,WFKR,≤ 0.25
17,PSEA,≤ 0.25
18,MTWK,≤ 0.25
19,ISPI,≤ 0.25
20,HIYR,≤ 0.25
21,KDHL,≤ 0.25
22,PYRP,≤ 0.25
23,IQPG,≤ 0.25
24,SLYG,≤ 0.25

row,Variant,enrichment ratio
1,DNCK,≤ 0.25
2,IITI,≤ 0.25
3,FMNG,≤ 0.25
4,AGLT,7.3
5,VSIW,≤ 0.25
6,HYGA,≤ 0.25
7,VFGL,≤ 0.25
8,MNID,≤ 0.25
9,FDKC,≤ 0.25
10,HHRN,≤ 0.25
11,LYPN,≤ 0.25
12,EPIK,≤ 0.25
13,LSEY,≤ 0.25
14,AFIS,≤ 0.25
15,VDKN,≤ 0.25
16,GSLV,17.9
17,LKHT,≤ 0.25
18,IFDF,≤ 0.25
19,DKVP,≤ 0.25
20,SDPD,≤ 0.25
21,SELS,20.9
22,LIMI,≤ 0.25
23,YCSQ,≤ 0.25
24,ETNW,≤ 0.25

row,Variant,enrichment ratio
1,KDCF,≤ 0.25
2,YRWM,≤ 0.25
3,YIIC,≤ 0.25
4,SYRL,≤ 0.25
5,GREV,≤ 0.25
6,QPIK,≤ 0.25
7,DSHH,≤ 0.25
8,FIQK,≤ 0.25
9,NINY,≤ 0.25
10,QYPD,≤ 0.25
11,CYFP,≤ 0.25
12,VRML,≤ 0.25
13,VVPK,≤ 0.25
14,YFDY,≤ 0.25
15,WNNY,≤ 0.25
16,VYED,≤ 0.25
17,HEHI,≤ 0.25
18,MAAA,≤ 0.25
19,WEPH,1.73
20,TPCG,≤ 0.25
21,RDFI,≤ 0.25
22,PKTL,≤ 0.25
23,YKNS,≤ 0.25
24,MCMG,7.07

row,Variant,enrichment ratio
1,IGFD,≤ 0.25
2,MQYY,≤ 0.25
3,SWCD,≤ 0.25
4,LQEP,≤ 0.25
5,DMMR,≤ 0.25
6,DSFR,≤ 0.25
7,GQMM,11.4
8,YDVF,≤ 0.25
9,YMHF,≤ 0.25
10,VCQM,≤ 0.25
11,WTYW,≤ 0.25
12,RSKD,≤ 0.25
13,RCLK,≤ 0.25
14,VWIH,≤ 0.25
15,YILM,12.1
16,GNHI,≤ 0.25
17,IALE,≤ 0.25
18,FIVH,≤ 0.25
19,NWPT,≤ 0.25
20,REHT,≤ 0.25
21,RYYF,≤ 0.25
22,SHSW,≤ 0.25
23,TFLD,≤ 0.25
24,QQKF,≤ 0.25

row,Variant,enrichment ratio
1,IPHC,≤ 0.25
2,ELPV,≤ 0.25
3,WVTR,≤ 0.25
4,APFG,≤ 0.25
5,KHLM,≤ 0.25
6,TRHN,≤ 0.25
7,NTKA,≤ 0.25
8,KGGM,≤ 0.25
9,HWSY,≤ 0.25
10,AAFL,≤ 0.25
11,NVSW,≤ 0.25
12,DHCK,≤ 0.25
13,AGNL,≤ 0.25
14,YNCK,≤ 0.25
15,MDYD,≤ 0.25
16,FEDS,≤ 0.25
17,NQKG,≤ 0.25
18,LPDN,≤ 0.25
19,RLCM,≤ 0.25
20,AYFH,≤ 0.25
21,YLMQ,≤ 0.25
22,TGVP,≤ 0.25
23,PRVS,≤ 0.25
24,PGMC,≤ 0.25

row,Variant,enrichment ratio
1,YSSH,≤ 0.25
2,MAYY,5.48
3,AKSM,15.5
4,RDPS,≤ 0.25
5,KSVT,≤ 0.25
6,IYLK,≤ 0.25
7,VSHV,≤ 0.25
8,SYIW,≤ 0.25
9,RPDI,≤ 0.25
10,SNRY,≤ 0.25
11,ESQW,≤ 0.25
12,ASTI,13.9
13,KHKM,≤ 0.25
14,SNHH,≤ 0.25
15,ESAF,≤ 0.25
16,WSKE,≤ 0.25
17,WGFS,≤ 0.25
18,DAPA,≤ 0.25
19,VWTI,≤ 0.25
20,PALI,≤ 0.25
21,KFSW,≤ 0.25
22,SGFL,4.93
23,GWCT,≤ 0.25
24,PIEG,≤ 0.25

row,Variant,enrichment ratio
1,RADD,≤ 0.25
2,VKHD,≤ 0.25
3,EKDY,≤ 0.25
4,HYGH,≤ 0.25
5,LYEH,≤ 0.25
6,VSRS,≤ 0.25
7,DCSY,≤ 0.25
8,GNFR,≤ 0.25
9,HPPD,≤ 0.25
10,TQRI,≤ 0.25
11,YRRV,≤ 0.25
12,KPYI,≤ 0.25
13,DFDV,≤ 0.25
14,EFDW,≤ 0.25
15,EETV,≤ 0.25
16,WIVS,≤ 0.25
17,ECAK,≤ 0.25
18,VLLH,0.422
19,SMHW,≤ 0.25
20,NMHH,≤ 0.25
21,WKLR,≤ 0.25
22,WKQS,≤ 0.25
23,WGRI,≤ 0.25
24,APSH,≤ 0.25

row,Variant,enrichment ratio
1,QAFE,≤ 0.25
2,INTF,≤ 0.25
3,WTAL,≤ 0.25
4,HAGN,≤ 0.25
5,WPLS,≤ 0.25
6,IHWY,≤ 0.25
7,QTHG,≤ 0.25
8,EGHQ,≤ 0.25
9,NAGL,≤ 0.25
10,AHQM,≤ 0.25
11,ESWW,≤ 0.25
12,KFNW,≤ 0.25
13,VSVL,2.56
14,YPIF,≤ 0.25
15,SEIH,3.05
16,NTSN,≤ 0.25
17,QFCL,≤ 0.25
18,NPAR,≤ 0.25
19,NILY,≤ 0.25
20,GTMY,5.58
21,QTHM,≤ 0.25
22,MQVM,≤ 0.25
23,THEA,≤ 0.25
24,DIHG,≤ 0.25

row,Variant,enrichment ratio
1,KNPI,≤ 0.25
2,LQTV,≤ 0.25
3,SLYM,≤ 0.25
4,YYYW,≤ 0.25
5,VVDN,≤ 0.25
6,DHRV,≤ 0.25
7,ENVG,≤ 0.25
8,FYCY,≤ 0.25
9,FIWI,≤ 0.25
10,HCWM,≤ 0.25
11,QELT,≤ 0.25
12,ASPP,≤ 0.25
13,SILL,1.4
14,MNRH,≤ 0.25
15,SQGA,≤ 0.25
16,FMAS,≤ 0.25
17,LKWR,≤ 0.25
18,TNKT,≤ 0.25
19,NQMA,≤ 0.25
20,HPPK,≤ 0.25
21,YRCD,≤ 0.25
22,DNMS,≤ 0.25
23,FNKK,≤ 0.25
24,MYAV,0.428

row,Variant,enrichment ratio
1,LVEP,0.737
2,EFTR,≤ 0.25
3,WTGY,≤ 0.25
4,WFWQ,≤ 0.25
5,AAIW,0.575
6,DGNI,≤ 0.25
7,AGWL,≤ 0.25
8,YYCN,≤ 0.25
9,IVSY,≤ 0.25
10,TVNC,3.39
11,RVRS,≤ 0.25
12,QNHW,≤ 0.25
13,DQIF,≤ 0.25
14,FKFK,≤ 0.25
15,DIIG,≤ 0.25
16,SPAY,≤ 0.25
17,GDNF,≤ 0.25
18,EGPQ,≤ 0.25
19,TMIT,≤ 0.25
20,AHMM,≤ 0.25
21,HNHE,≤ 0.25
22,HPCP,≤ 0.25
23,PFVH,≤ 0.25
24,IPSH,≤ 0.25

row,Variant,enrichment ratio
1,DQNT,≤ 0.25
2,KKLL,≤ 0.25
3,ESTE,≤ 0.25
4,ICCA,≤ 0.25
5,DFLP,≤ 0.25
6,RAAE,≤ 0.25
7,RAQY,≤ 0.25
8,VRPQ,≤ 0.25
9,QKHR,≤ 0.25
10,VKCP,≤ 0.25
11,HHSV,≤ 0.25
12,EYYW,≤ 0.25
13,SNAT,5.88
14,MIVE,≤ 0.25
15,EDAA,≤ 0.25
16,IHQF,≤ 0.25
17,VTNM,≤ 0.25
18,WKCP,≤ 0.25
